PubChem BioAssay AID1476 (National Center for Advancing Translational Sciences (NCATS), 2009)
Out of some 200,000 compounds screened, about 4,500 (2.2%) were called active. The inconclusive results got no clear call from the source; some entries with a clear call stand among them for comparison. Calls follow the shape of the dose curve; as a rule, active = well fitted inhibition curve with a large enough effect; inconclusive = small, poorly fitted or top-dose-only effect, or effect the other way; inactive = flat fitted curve, though single readings scatter. Potencies of inconclusive entries are doubtful fits and often do not repeat.
Also: nearly all actives have a fitted effect of over 40% in size.
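For max response, negative = inhibition in this document: plate controls were enzyme without inhibitor for no effect and buffer without enzyme for full effect.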
Potency is read from the fitted curve at half-maximal effect; tags tell the direction and shape of the fitted curve.

The compounds below were run against Cruzipain (Trypanosoma cruzi) (UniProt P25779) (assay: qHTS Assay for Promiscuous and Specific Inhibitors of Cruzain (without detergent)). Conditions: purified cruzain, Z-FR-AMC fluorescence, no detergent.
Sequence of UniProt P25779 (P25779 whole entry, looked up): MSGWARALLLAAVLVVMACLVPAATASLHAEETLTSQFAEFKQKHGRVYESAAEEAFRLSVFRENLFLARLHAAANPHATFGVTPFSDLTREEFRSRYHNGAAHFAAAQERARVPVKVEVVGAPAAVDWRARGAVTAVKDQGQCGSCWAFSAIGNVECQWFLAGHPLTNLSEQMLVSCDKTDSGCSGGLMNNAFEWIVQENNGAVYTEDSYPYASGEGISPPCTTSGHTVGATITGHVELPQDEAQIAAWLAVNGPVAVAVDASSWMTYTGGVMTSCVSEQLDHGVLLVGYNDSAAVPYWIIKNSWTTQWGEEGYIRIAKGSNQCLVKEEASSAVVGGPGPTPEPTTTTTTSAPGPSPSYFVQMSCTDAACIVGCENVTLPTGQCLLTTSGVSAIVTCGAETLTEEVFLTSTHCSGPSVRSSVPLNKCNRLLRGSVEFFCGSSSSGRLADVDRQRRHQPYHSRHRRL
Procedure, shortened: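 Detergent-free condition (0.00005% Triton X-100) in acetate buffer pH 5.5 with DTT. 1.5 nM enzyme and compound were pre-mixed 15 min, then 2 uM Z-FR-AMC substrate added; reaction progress from fluorescence change between first and third reads (60 s).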
For `Nc1[nH]n(-c2ccccc2)c(=O)c1N=Nc1ccccc1[N+](=O)[O-]`, the Potency was inconclusive: 31.6 µM [inhibitor, single point].
In the case of `COc1cccc(C2C(C(=O)Nc3ccccc3)=C(C)N=c3s/c(=C/c4ccc(OCC(=O)O)cc4)c(=O)n32)c1` (centres undefined), the Potency is reported as inconclusive: 6.31 µM [activator, single point].
In the case of `CCOc1ccc(N(C(=O)c2ccc(OC)cc2)S(=O)(=O)c2ccc3c(c2)n(C)c(=O)n3C)cc1`, the Potency is reported as inconclusive: 25.1 µM [activator, partial curve].
`CCc1ccc(NC(=O)COC(=O)/C(=C/c2ccccc2OC)c2ccccc2)cc1` was tested, and the Potency was inconclusive: 39.8 µM [inhibitor, single point].
`Cn1c(N)c(C(=O)COC(=O)C2(c3cccc(F)c3)CCCC2)c(=O)n(C)c1=O` was tested, and the Potency was inconclusive: 25.1 µM [activator, single point].
For `COc1nccnc1NS(=O)(=O)c1ccc(N=Cc2c(C)[nH]n(-c3ccc(C)c(C)c3)c2=O)cc1`, the Potency was inconclusive: 25.1 µM [activator, partial curve].
In the case of `COc1cc(/C=N/NC(=O)c2ccc(N(C)S(=O)(=O)c3ccccc3)cc2)cc(OC)c1OC`, the Potency is reported as inconclusive: 39.8 µM [activator, single point].
For `CCOC(=O)c1cc(OC(=O)c2cccc(F)c2)n(-c2ccccc2)n1`, the max response, negative = inhibition was inactive: 7.52%.
In the case of `Cc1cccn2c(=O)c3cc(C(=O)NC(C)c4ccccc4)c(=N)n(CCOCCO)c3nc12` (centres undefined), the Potency is reported as inconclusive: 15.8 µM [activator, partial curve, poor fit].
For `COc1ccc2c(c1)Cc1sc(NC(=O)c3ccc(Cl)cc3)nc1-2`, the Potency was active: 3.16 µM.
With `Cc1ccc(-n2c(SCc3ccccc3C)nc3[nH]ncc3c2=O)cc1C` the Potency was inconclusive: 31.6 µM [inhibitor, single point].
With `COc1ccc(OC)c(N(CC(=O)N2CCC(C)CC2)S(=O)(=O)c2ccc(OC)c(OC)c2)c1` the Potency was inconclusive: 31.6 µM [activator, single point].
With `COc1cccc(NC(=O)c2cn(C)c(=O)c3cc(OC)c(OC)cc23)c1` the Potency was inconclusive: 39.8 µM [activator, single point].
In the case of `O=S(=O)(c1ccc(F)cc1)N1CCn2c(nc3ccccc32)C1`, the Potency is reported as active: 5.01 µM.
`CCC(C)(C)NC(=S)Nc1ccc(-c2nc3ccc(C)cc3s2)cc1` was tested, and the Potency was inconclusive: 3.98 µM [inhibitor, full curve].
In the case of `CCCCC/C=C\C[C@H](O)/C=C/c1cccc(C[C@H](O)CCCCO)n1`, the Potency is reported as inconclusive: 31.6 µM [activator, single point].
In the case of `CCOc1ccccc1N1CC(c2nc3ccccc3n2CCOc2ccccc2OC)CC1=O` (centres undefined), the Potency is reported as inconclusive: 31.6 µM [activator, single point].
With `CCOC(=O)c1c(NC(=S)Nc2ccc(Cl)cc2)sc2c1CCN(C)C2` the Potency was inconclusive: 39.8 µM [inhibitor, single point].
For `Cc1cc(C)c2nc(NNC(=O)c3ccc(S(=O)(=O)N4CCc5ccccc5C4)cc3)sc2c1`, the Potency was active: 6.31 µM.
In the case of `CC(=O)N[C@H]1C(O[C@@H]2O[C@H](C[C@@H](O)[C@H]3O[C@@H](N4CCC(=O)NC4=O)[C@H](O)[C@@H]3O)[C@H](O)[C@H](O)[C@H]2NC(=O)/C=C/CCCCCCCCCCC(C)C)OC(CO)[C@@H](O)[C@@H]1O` (some centres undefined), the Potency is reported as inconclusive: 39.8 µM [activator, single point].
`CCOc1ccc(NC(=O)CSc2nnc(Cc3cccn3C)n2-c2ccc(F)cc2)cc1` was tested, and the Potency was inconclusive: 20 µM [activator, single point].
`Cc1csc(N/N=C/c2ccc(O)c([N+](=O)[O-])c2)n1` was tested, and the Potency was active: 7.94 µM.
With `CCc1ccc(/C=C2\Oc3cc(OS(C)(=O)=O)ccc3C2=O)cc1` the Potency was inconclusive: 39.8 µM [activator, single point].
`O=C(CSc1nnc(C2CC2)n1Cc1ccccc1)c1cc2ccccc2o1` was tested, and the Potency was active: 15.8 µM.
`CC(C)C(=O)c1cc2c(cc1NC(=O)c1ccccc1F)OCCO2` was tested, and the Potency was inconclusive: 39.8 µM [activator, single point].
For `CCC1=C(OC(=O)N(CC)CC)N2C(=O)OC(=NCC(=O)OC)[C@]2(C)[C@H]2C1=CC[C@H]1C(=O)N(CC)C(=O)[C@H]12`, the Potency was inconclusive: 31.6 µM [activator, single point].
For `Cc1cc2oc(C(=O)Nc3cccnc3)c(C)c2cc1C`, the Potency was inconclusive: 39.8 µM [inhibitor, single point].
`Cc1cccc(-n2ncc(C(=O)Nc3ccc4c(c3)OCO4)c2C2CCN(C(=O)OC(C)(C)C)CC2)c1` was tested, and the Potency was inconclusive: 15.8 µM [inhibitor, partial curve].
`Cc1ccc(O)c(NC(=O)CCSc2nc(-c3ccco3)cc(C(F)(F)F)n2)c1` was tested, and the max response, negative = inhibition was inactive: -5.27%.
With `O=c1c2ccccc2nc2n1CCc1c-2[nH]c2ccccc12` the Potency was inconclusive: 39.8 µM [inhibitor, single point].
For `Cc1ccc(Cn2c(C)c3cnn(CC(=O)N4CCN(c5ccc(F)cc5)CC4)c(=O)c3c2C)cc1`, the Potency was inconclusive: 0.199 µM [inhibitor, single point].
With `CN(C)c1ccccc1CN1CCCN(Cc2ccccc2N(C)C)C1c1ccncc1` the max response, negative = inhibition was inactive: 0.852%.
With `COC(=O)c1[nH]c2ccc(Cl)cc2c1NC(=O)CN1CCc2cc(OC)c(OC)cc2C1` the max response, negative = inhibition was inactive: 18.7%.
`CC(C)Oc1ccc(C(=O)Nc2nc3c(s2)CC(C(C)(C)C)CC3)cc1` (centres undefined) was tested, and the max response, negative = inhibition was inactive: 15.3%.
`O=C(NC(=S)Nn1cnc2c(cnn2-c2ccccc2)c1=O)c1ccc(Oc2ccccc2)cc1` was tested, and the Potency was active: 25.1 µM.
In the case of `COc1ccc(N2CCN(C(=O)CCc3nc(-c4ccc(C)cc4)no3)CC2)cc1`, the Potency is reported as inconclusive: 39.8 µM [activator, single point].
`C=C(C)CN=C1NN=C(c2cc(C)n(-c3ccc(C)cc3)c2C)CS1` was tested, and the Potency was active: 7.94 µM.
`C=CCn1c(-c2oc3nc(-c4ccccc4)cc(-c4ccccc4)c3c2N)n[nH]c1=S` was tested, and the Potency was active: 25.1 µM.
`Cc1ccccc1Nc1nnc(-c2ccc(C)c(S(=O)(=O)N3CCCCC3)c2)c2ccccc12` was tested, and the Potency was inconclusive: 39.8 µM [inhibitor, single point].
